Laboratory results as given in US11999716B2, “WDR5 inhibitors and modulators” (priority 2018, dated 2024).

Target: WDR5 (Homo sapiens, UniProt P61964)
Assay: biochemical
Type: binding
Conditions: WDR5-His tag (Δ23, residues 24-334) 2 nM; 10mer-Thr-FAM probe 150 nM; Tb-anti-HIS 1 nM; 60 min, room temperature; read-out: Ki for Inhibition of WDR5 by TR-FRET assay

Structure (SMILES)	Ki [nM]
CCn1cc(-c2cc(Cn3ccn(C)c3=N)cc3c2CCN(Cc2cn(C)nc2C)C3=O)c(C(F)(F)F)n1 [Example 77, 2-((1,3-Dimethyl-1H-pyrazol-4-yl)methyl)-5-(1-ethyl-3-(trifluoromethyl)-1H-pyrazol-4-yl)-7-((2-imino-3-methyl-2,3-dihydro-1H-imidazol-1-yl)methyl)-3,4-dihydroisoquinolin-1(2H)-one]	< 0.05
Cc1cc([C@H](C)N2CCc3c(OCC4CC4)cc(Cn4ccn(C)c4=N)cc3C2=O)ccc1F [Example 78, (S)-5-(Cyclopropylmethoxy)-2-(1-(4-fluoro-3-methylphenyl)ethyl)-7-((2-imino-3-methyl-2,3-dihydro-1H-imidazol-1-yl)methyl)-3,4-dihydroisoquinolin-1(2H)-one]	0.21
Cc1cc([C@H](C)N2CCc3c(cc(Cn4ccn(C)c4=N)cc3-c3cn(C)nc3C(F)(F)F)C2=O)ccc1F [Example 79, (S)-2-(1-(4-Fluoro-3-methylphenyl)ethyl)-7-((2-imino-3-methyl-2,3-dihydro-1H-imidazol-1-yl)methyl)-5-(1-methyl-3-(trifluoromethyl)-1H-pyrazol-4-yl)-3,4-dihydroisoquinolin-1(2H)-one]	0.04
COc1cc(CN2CCc3c(cc(Cn4ccoc4=N)cc3-c3cccnc3C(F)(F)F)C2=O)cc(OC)c1 [Example 80, 2-(3,5-Dimethoxybenzyl)-7-((2-iminooxazol-3(2H)-yl)methyl)-5-(2-(trifluoromethyl)pyridin-3-yl)-3,4-dihydroisoquinolin-1(2H)-one]	< 0.05
COc1cc(CN2CCc3c(cc(Cn4ccoc4=N)cc3-c3ccc(F)cc3C)C2=O)cc(OC)c1 [Example 81, 2-(3,5-Dimethoxybenzyl)-5-(4-fluoro-2-methylphenyl)-7-((2-iminooxazol-3(2H)-yl)methyl)-3,4-dihydroisoquinolin-1(2H)-one]	< 0.05
COc1cc(CN2CCc3c(cc(CN4CCOC4=N)cc3-c3cccnc3C(F)(F)F)C2=O)cc(OC)c1 [Example 82, 2-(3,5-Dimethoxybenzyl)-7-((2-iminooxazolidin-3-yl)methyl)-5-(2-(trifluoromethyl)pyridin-3-yl)-3,4-dihydroisoquinolin-1(2H)-one]	< 0.05
COc1ccnc(CN2CCc3c(cc(CN4CCOC4=N)cc3-c3cn(C)nc3C(F)(F)F)C2=O)c1 [Example 83, 7-((2-Iminooxazolidin-3-yl)methyl)-2-((4-methoxypyridin-2-yl)methyl)-5-(1-methyl-3-(trifluoromethyl)-1H-pyrazol-4-yl)-3,4-dihydroisoquinolin-1(2H)-one]	< 0.05
COc1ccnc(CN2CCc3c(cc(Cn4ccoc4=N)cc3-c3cn(C)nc3C(F)(F)F)C2=O)c1 [Example 84, 7-((2-Iminooxazol-3(2H)-yl)methyl)-2-((4-methoxypyridin-2-yl)methyl)-5-(1-methyl-3-(trifluoromethyl)-1H-pyrazol-4-yl)-3,4-dihydroisoquinolin-1(2H)-one]	< 0.05
COc1ccnc(CN2CCc3c(cc(Cn4ccoc4=N)cc3-c3cn(C)nc3C)C2=O)c1 [Example 85, 5-(1,3-Dimethyl-1H-pyrazol-4-yl)-7-((2-iminooxazol-3(2H)-yl)methyl)-2-((4-methoxypyridin-2-yl)methyl)-3,4-dihydroisoquinolin-1(2H)-one]	0.065
CCn1cc(-c2cc(CN3CCOC3=N)cc3c2CCN(Cc2cc(OC)ccn2)C3=O)cn1 [Example 86, 5-(1-Ethyl-1H-pyrazol-4-yl)-7-((2-iminooxazolidin-3-yl)methyl)-2-((4-methoxypyridin-2-yl)methyl)-3,4-dihydroisoquinolin-1(2H)-one]	1.8
CCn1cc(-c2cc(Cn3ccoc3=N)cc3c2CCN(Cc2cc(OC)ccn2)C3=O)cn1 [Example 87, 5-(1-Ethyl-1H-pyrazol-4-yl)-7-((2-iminooxazol-3(2H)-yl)methyl)-2-((4-methoxypyridin-2-yl)methyl)-3,4-dihydroisoquinolin-1(2H)-one]	0.77
Cc1ccnc(CN2CCc3c(cc(Cn4ccoc4=N)cc3-c3cn(C)nc3C(F)(F)F)C2=O)c1 [Example 88, 7-((2-Iminooxazol-3(2H)-yl)methyl)-5-(1-methyl-3-(trifluoromethyl)-1H-pyrazol-4-yl)-2-((4-methylpyridin-2-yl)methyl)-3,4-dihydroisoquinolin-1(2H)-one]	< 0.05
CCn1cc(-c2cc(Cn3ccoc3=N)cc3c2CCN(Cc2cc(OC)ccn2)C3=O)c(C(F)(F)F)n1 [Example 89, 5-(1-Ethyl-3-(trifluoromethyl)-1H-pyrazol-4-yl)-7-((2-iminooxazol-3(2H)-yl)methyl)-2-((4-methoxypyridin-2-yl)methyl)-3,4-dihydroisoquinolin-1(2H)-one]	< 0.05
CCn1cc(-c2cc(Cn3ccoc3=N)cc3c2CCN(Cc2cc(OC)ccn2)C3=O)c(C)n1 [Example 90, 5-(1-Ethyl-3-methyl-1H-pyrazol-4-yl)-7-((2-iminooxazol-3(2H)-yl)methyl)-2-((4-methoxypyridin-2-yl)methyl)-3,4-dihydroisoquinolin-1(2H)-one]	< 0.05
CCn1cc(-c2cc(Cn3ccoc3=N)cc3c2CCN([C@@H](C)c2cc(OC)ccn2)C3=O)c(C(F)(F)F)n1 [Example 91, (S)-5-(1-Ethyl-3-(trifluoromethyl)-1H-pyrazol-4-yl)-7-((2-iminooxazol-3(2H)-yl)methyl)-2-(1-(4-methoxypyridin-2-yl)ethyl)-3,4-dihydroisoquinolin-1(2H)-one]	< 0.05
COc1cc(CN2CCc3c(OC4CCC4)cc(Cn4ccoc4=N)cc3C2=O)cc(OC)c1 [Example 92, 5-Cyclobutoxy-2-(3,5-dimethoxybenzyl)-7-((2-iminooxazol-3(2H)-yl)methyl)-3,4-dihydroisoquinolin-1(2H)-one]	1.1
COc1ccnc([C@H](C)N2CCc3c(cc(Cn4ccoc4=N)cc3-c3cn(C)nc3C(F)(F)F)C2=O)c1 [Example 93, (S)-7-((2-Iminooxazol-3(2H)-yl)methyl)-2-(1-(4-methoxypyridin-2-yl)ethyl)-5-(1-methyl-3-(trifluoromethyl)-1H-pyrazol-4-yl)-3,4-dihydroisoquinolin-1(2H)-one]	< 0.05
CCn1cc(-c2cc(Cn3ccoc3=N)cc3c2CCN(Cc2cc(C)nn2C)C3=O)c(C(F)(F)F)n1 [Example 94, 2-((1,3-Dimethyl-1H-pyrazol-5-yl)methyl)-5-(1-ethyl-3-(trifluoromethyl)-1H-pyrazol-4-yl)-7-((2-iminooxazol-3(2H)-yl)methyl)-3,4-dihydroisoquinolin-1(2H)-one]	< 0.05
CCn1cc(-c2cc(CN3CCOC3=N)cc3c2CCN(Cc2cc(C)nn2C)C3=O)c(C(F)(F)F)n1 [Example 95, 2-((1,3-Dimethyl-1H-pyrazol-5-yl)methyl)-5-(1-ethyl-3-(trifluoromethyl)-1H-pyrazol-4-yl)-7-((2-iminooxazolidin-3-yl)methyl)-3,4-dihydroisoquinolin-1(2H)-one]	< 0.05
CCn1cc(CN2CCc3c(cc(Cn4ccoc4=N)cc3-c3cn(CC)nc3C(F)(F)F)C2=O)nn1 [Example 96, 2-((1-Ethyl-1H-1,2,3-triazol-4-yl)methyl)-5-(1-ethyl-3-(trifluoromethyl)-1H-pyrazol-4-yl)-7-((2-iminooxazol-3(2H)-yl)methyl)-3,4-dihydroisoquinolin-1(2H)-one]	< 0.05
